These are yes or no findings as the source states them, for the method shown. Binding seen in cells or lysates may run through a third protein. Some results given as binding are weak or reduced against the parent protein; the word gives no strength. For some assays here: Sequences can lack the tags named with a protein.
T1: recombinant GST-tagged OGT (O-GlcNAc transferase) (UniProt O15294)
T1 sequence: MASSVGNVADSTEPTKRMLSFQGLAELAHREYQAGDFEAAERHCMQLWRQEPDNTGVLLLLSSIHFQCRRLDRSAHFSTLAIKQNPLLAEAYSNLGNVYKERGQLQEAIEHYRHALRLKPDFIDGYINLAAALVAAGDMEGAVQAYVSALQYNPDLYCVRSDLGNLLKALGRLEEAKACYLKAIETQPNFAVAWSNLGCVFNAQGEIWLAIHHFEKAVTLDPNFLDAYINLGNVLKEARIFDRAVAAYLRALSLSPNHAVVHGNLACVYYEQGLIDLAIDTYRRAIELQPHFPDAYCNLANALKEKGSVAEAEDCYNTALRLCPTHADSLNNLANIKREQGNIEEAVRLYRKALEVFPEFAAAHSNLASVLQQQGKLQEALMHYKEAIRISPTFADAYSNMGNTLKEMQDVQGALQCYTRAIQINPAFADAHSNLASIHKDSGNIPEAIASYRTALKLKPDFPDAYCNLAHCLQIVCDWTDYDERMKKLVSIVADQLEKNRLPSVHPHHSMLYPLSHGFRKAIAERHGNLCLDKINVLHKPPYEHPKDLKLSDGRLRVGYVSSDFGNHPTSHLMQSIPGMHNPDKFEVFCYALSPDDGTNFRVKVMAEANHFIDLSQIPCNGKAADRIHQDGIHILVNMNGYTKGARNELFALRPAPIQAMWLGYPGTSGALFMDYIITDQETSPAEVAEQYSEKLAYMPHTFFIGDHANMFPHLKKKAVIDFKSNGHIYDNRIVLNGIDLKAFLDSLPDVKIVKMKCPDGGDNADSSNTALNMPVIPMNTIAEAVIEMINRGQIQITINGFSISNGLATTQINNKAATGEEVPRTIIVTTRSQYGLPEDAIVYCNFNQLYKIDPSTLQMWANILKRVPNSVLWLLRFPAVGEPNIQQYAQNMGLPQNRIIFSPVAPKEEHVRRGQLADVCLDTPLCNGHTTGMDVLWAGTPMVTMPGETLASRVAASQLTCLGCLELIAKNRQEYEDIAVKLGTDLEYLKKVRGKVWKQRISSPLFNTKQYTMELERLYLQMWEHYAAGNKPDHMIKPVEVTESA

T2: endogenous OGT (O-GlcNAc transferase) (human (endogenous in MCF7)) (UniProt O15294)
T2 sequence: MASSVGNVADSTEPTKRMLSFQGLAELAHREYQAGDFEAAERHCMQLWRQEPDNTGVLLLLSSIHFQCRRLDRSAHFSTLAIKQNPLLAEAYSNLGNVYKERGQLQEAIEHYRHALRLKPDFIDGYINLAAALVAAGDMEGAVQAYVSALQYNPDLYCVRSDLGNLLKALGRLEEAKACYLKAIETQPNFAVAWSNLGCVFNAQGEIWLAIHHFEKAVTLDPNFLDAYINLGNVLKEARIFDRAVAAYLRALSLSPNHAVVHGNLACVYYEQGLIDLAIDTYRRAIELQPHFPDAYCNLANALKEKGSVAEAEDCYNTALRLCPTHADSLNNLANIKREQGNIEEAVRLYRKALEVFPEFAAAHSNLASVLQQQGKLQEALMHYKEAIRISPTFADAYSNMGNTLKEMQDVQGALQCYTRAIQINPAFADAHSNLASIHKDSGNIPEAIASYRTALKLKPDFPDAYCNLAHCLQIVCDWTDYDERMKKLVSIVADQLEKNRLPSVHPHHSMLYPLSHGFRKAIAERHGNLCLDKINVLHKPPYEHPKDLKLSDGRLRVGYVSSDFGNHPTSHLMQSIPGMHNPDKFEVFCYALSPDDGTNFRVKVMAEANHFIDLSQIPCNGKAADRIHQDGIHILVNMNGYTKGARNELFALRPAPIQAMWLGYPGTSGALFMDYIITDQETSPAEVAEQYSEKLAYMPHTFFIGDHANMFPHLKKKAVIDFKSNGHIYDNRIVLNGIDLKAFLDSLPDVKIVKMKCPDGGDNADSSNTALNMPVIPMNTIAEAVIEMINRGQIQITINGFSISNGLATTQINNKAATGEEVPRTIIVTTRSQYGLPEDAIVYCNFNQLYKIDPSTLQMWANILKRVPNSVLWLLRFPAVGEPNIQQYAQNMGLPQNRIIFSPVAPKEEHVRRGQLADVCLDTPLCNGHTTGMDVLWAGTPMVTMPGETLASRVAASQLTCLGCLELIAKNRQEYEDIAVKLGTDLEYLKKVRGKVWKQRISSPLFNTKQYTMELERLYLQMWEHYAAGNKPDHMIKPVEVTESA

T3: HA-tagged OGT (UniProt O15294)
T3 sequence: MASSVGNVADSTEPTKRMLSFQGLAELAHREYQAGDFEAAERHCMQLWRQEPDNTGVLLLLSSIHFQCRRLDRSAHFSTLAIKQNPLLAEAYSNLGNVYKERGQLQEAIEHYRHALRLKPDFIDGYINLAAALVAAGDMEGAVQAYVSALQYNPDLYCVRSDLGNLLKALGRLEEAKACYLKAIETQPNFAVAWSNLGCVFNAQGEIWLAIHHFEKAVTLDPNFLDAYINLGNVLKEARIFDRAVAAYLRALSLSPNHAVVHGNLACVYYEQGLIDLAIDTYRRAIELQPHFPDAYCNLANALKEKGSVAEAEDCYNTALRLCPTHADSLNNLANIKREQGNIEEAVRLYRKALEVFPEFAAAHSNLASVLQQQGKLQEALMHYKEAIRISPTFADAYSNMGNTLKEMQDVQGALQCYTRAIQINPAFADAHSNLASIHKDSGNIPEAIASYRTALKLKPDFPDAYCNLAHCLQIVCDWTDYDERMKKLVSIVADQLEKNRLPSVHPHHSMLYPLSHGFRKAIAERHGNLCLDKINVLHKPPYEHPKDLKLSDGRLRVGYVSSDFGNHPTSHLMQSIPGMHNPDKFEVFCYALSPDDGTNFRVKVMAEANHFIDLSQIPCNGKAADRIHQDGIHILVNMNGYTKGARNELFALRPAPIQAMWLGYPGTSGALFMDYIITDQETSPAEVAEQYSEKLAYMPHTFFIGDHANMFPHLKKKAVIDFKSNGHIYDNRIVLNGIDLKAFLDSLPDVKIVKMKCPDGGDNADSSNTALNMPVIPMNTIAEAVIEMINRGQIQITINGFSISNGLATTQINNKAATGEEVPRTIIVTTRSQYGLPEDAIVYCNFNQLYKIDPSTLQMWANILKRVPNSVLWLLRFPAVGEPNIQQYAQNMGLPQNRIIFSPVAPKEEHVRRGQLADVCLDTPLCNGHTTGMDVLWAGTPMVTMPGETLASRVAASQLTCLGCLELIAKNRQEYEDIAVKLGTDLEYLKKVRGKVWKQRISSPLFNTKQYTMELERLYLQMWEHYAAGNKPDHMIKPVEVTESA


Experiments:
[1] = target: T1, recombinant GST-tagged OGT (O-GlcNAc transferase); test: pull-down; GST–OGT or GST immobilised on Glutathione Sepharose beads; soluble and chromatin-bound fractions of asynchronous MDA-MB-231 cells; Western blot; only the target purified
[2] = target: T1, recombinant GST-tagged OGT (O-GlcNAc transferase); test: pull-down; GST–OGT or GST immobilised on Glutathione Sepharose beads as bait; chromatin-bound fraction (700 µg) of asynchronous MCF7 cells as prey, overnight at 4 °C; washes in PBS with 0.1% Triton X-100, up to 150 mM NaCl more; elution with glutathione; Western blot; only the target purified
[3] = target: T1, recombinant GST-tagged OGT (O-GlcNAc transferase); test: pull-down; GST–OGT or GST immobilised on Glutathione Sepharose beads as bait; soluble nucleocytoplasmic fraction (700 µg) of asynchronous MCF7 cells as prey, overnight at 4 °C; washes in PBS with 0.1% Triton X-100, up to 150 mM NaCl more; elution with glutathione; Western blot; only the target purified
[4] = target: T2, endogenous OGT (O-GlcNAc transferase) (human (endogenous in MCF7)); test: proximity ligation; in situ PLA (Duolink) in fixed asynchronous MCF7 cells, permeabilised 2 min with 0.5% Triton X-100 in PBS; endogenous OGT and MCM; controls with only one primary antibody
HA-tagged OGT = target: T3, HA-tagged OGT; test: co-IP; whole cell extracts of HEK293T cells transiently transfected with HA-OGT; immunoprecipitation of either OGT or MCM subunits; buffers without SDS, one wash with 300 mM NaCl; Western blot

Row | binding [1] | binding [2] | binding [3] | binding [4] | binding (HA-tagged OGT) | Binder
1 | binds | binds | binds | – | – | minichromosome maintenance protein MCM5 (protein, UniProt P33992 1-734) MSGFDDPGIFYSDSFGGDAQADEGQARKSQLQRRFKEFLRQYRVGTDRTGFTFKYRDELKRHYNLGEYWIEVEMEDLASFDEDLADYLYKQPAEHLQLLEEAAKEVADEVTRPRPSGEEVLQDIQVMLKSDASPSSIRSLKSDMMSHLVKIPGIIIAASAVRAKATRISIQCRSCRNTLTNIAMRPGLEGYALPRKCNTDQAGRPKCPLDPYFIMPDKCKCVDFQTLKLQELPDAVPHGEMPRHMQLYCDRYLCDKVVPGNRVTIMGIYSIKKFGLTTSRGRDRVGVGIRSSYIRVLGIQVDTDGSGRSFAGAVSPQEEEEFRRLAALPNVYEVISKSIAPSIFGGTDMKKAIACLLFGGSRKRLPDGLTRRGDINLLMLGDPGTAKSQLLKFVEKCSPIGVYTSGKGSSAAGLTASVMRDPSSRNFIMEGGAMVLADGGVVCIDEFDKMREDDRVAIHEAMEQQTISIAKAGITTTLNSRCSVLAAANSVFGRWDETKGEDNIDFMPTILSRFDMIFIVKDEHNEERDVMLAKHVITLHVSALTQTQAVEGEIDLAKLKKFIAYCRVKCGPRLSAEAAEKLKNRYIIMRSGARQHERDSDRRSSIPITVRQLEAIVRIAEALSKMKLQPFATEADVEEALRLFQVSTLDAALSGTLSGVEGFTSQEDQEMLSRIEKQLKRRFAIGSQVSEHSIIKDFTKQKYPEHAIHKVLQLMLRRGEIQHRMQRKVLYRLK
2 | binds | binds | binds | binds | binds | minichromosome maintenance protein MCM3 (protein, UniProt P25205 1-808) MAGTVVLDDVELREAQRDYLDFLDDEEDQGIYQSKVRELISDNQYRLIVNVNDLRRKNEKRANRLLNNAFEELVAFQRALKDFVASIDATYAKQYEEFYVGLEGSFGSKHVSPRTLTSCFLSCVVCVEGIVTKCSLVRPKVVRSVHYCPATKKTIERRYSDLTTLVAFPSSSVYPTKDEENNPLETEYGLSVYKDHQTITIQEMPEKAPAGQLPRSVDVILDDDLVDKAKPGDRVQVVGTYRCLPGKKGGYTSGTFRTVLIACNVKQMSKDAQPSFSAEDIAKIKKFSKTRSKDIFDQLAKSLAPSIHGHDYVKKAILCLLLGGVERDLENGSHIRGDINILLIGDPSVAKSQLLRYVLCTAPRAIPTTGRGSSGVGLTAAVTTDQETGERRLEAGAMVLADRGVVCIDEFDKMSDMDRTAIHEVMEQGRVTIAKAGIHARLNARCSVLAAANPVYGRYDQYKTPMENIGLQDSLLSRFDLLFIMLDQMDPEQDREISDHVLRMHRYRAPGEQDGDAMPLGSAVDILATDDPNFSQEDQQDTQIYEKHDNLLHGTKKKKEKMVSAAFMKKYIHVAKIIKPVLTQESATYIAEEYSRLRSQDSMSSDTARTSPVTARTLETLIRLATAHAKARMSKTVDLQDAEEAVELVQYAYFKKVLEKEKKRKKRSEDESETEDEEEKSQEDQEQKRKRRKTRQPDAKDGDSYDPYDFSDTEEEMPQVHTPKTADSQETKESQKVELSESRLKAFKVALLDVFREAHAQSIGMNRLTESINRDSEEPFSSVEIQAALSKMQDDNQVMVSEGIIFLI

Reference: PMC6208770
